The source of these data is US20230055143A1 (AstraZeneca / MedImmune, published 2023).

The target in assay [1] is T1, soluble recombinant His-tagged GPC3 protein (R&D Systems) (human, UniProt P51654 25-559, limits assumed).
T1 construct: also called Soluble HuGPC3; soluble GPC3 protein; not shown: His tag
The assay is described as follows: flow cytometry: His-tagged soluble GPC3 titrated on Jurkat cells expressing the CAR, anti-His secondary, one-site fit (apparent KD). (In flow cytometry, cells or beads pass a laser one at a time.)

The target of assay [2] is T1, soluble recombinant His-tagged GPC3 …. The assay is described as follows: flow cytometry: Jurkat cells expressing the CAR stained with soluble His-tagged GPC3 (x axis 0.001 to 10 µg/mL), anti-His secondary antibody, mean fluorescence intensity; one-site fit, apparent KD. The method, then:
Apparent binding affinity was determined by cell surface binding of soluble recombinant GPC3 protein to the GPC3-1 and GPC3-2 CARs expressed on the surface of Jurkat cells. CAR constructs were expressed on the surface of Jurkat cells using lentiviral vectors. Cells were stained with varying concentrations of recombinant His-tagged GPC3 protein (R&D systems). Bound GPC3 was visualized by staining with a fluorescently conjugated anti-His-tag secondary antibody, and cells were analyzed by flow cytometry. Binding curves were fit to a simple one site binding model to determine the apparent KD.

Assay [3] has the same target. Put plainly: SPR: scFv-Fc amine-coupled to the chip, soluble GPC3 in flow, 1:1 Langmuir fit. For orientation: SPR reads the build-up and loss of mass on a sensor chip optically.
Assay [4] shares this target. The assay is described as follows: SPR (BIAcore): scFv-Fc amine-coupled to the chip, soluble GPC3 flowed at 4, 7, 14, 28 and 57 nM; 1:1 Langmuir fit, mean value. The method, then: (§1) An alternative measure of binding affinity was determined using a BIAcore surface plasmon resonance system and GPC3-1 and GPC3-2 scFv-Fc fusion proteins. Purified scFv-Fc fusion molecules of GPC3-1 and GPC3-2 were covalently coupled to an amine reactive SPR sensor chip (CMS, GE Healthcare). For GPC-1, soluble GPC3 protein (R&D Systems) was flowed over the chip surface at concentrations of 14, 28, 57, 114, and 228 nM at a rate of 30 μL/min, and the interaction was monitored. For GPC3-2, concentrations of 4, 7, 14, 28, and 57 nM were flowed at the same flow rate. Data were fit using BIAevaluation software (GE Healthcare), and a simple 1:1 Langmuir binding model, with Rₘₐₓ fit globally and kₐ, kd, and KD fit locally.

Assay [5] shares this target. Put plainly: SPR (BIAcore): scFv-Fc amine-coupled to the chip, soluble GPC3 flowed at 14, 28, 57, 114 and 228 nM; 1:1 Langmuir fit, mean value. The method, then: as §1

T1 sequence (P51654 25-559 limits assumed): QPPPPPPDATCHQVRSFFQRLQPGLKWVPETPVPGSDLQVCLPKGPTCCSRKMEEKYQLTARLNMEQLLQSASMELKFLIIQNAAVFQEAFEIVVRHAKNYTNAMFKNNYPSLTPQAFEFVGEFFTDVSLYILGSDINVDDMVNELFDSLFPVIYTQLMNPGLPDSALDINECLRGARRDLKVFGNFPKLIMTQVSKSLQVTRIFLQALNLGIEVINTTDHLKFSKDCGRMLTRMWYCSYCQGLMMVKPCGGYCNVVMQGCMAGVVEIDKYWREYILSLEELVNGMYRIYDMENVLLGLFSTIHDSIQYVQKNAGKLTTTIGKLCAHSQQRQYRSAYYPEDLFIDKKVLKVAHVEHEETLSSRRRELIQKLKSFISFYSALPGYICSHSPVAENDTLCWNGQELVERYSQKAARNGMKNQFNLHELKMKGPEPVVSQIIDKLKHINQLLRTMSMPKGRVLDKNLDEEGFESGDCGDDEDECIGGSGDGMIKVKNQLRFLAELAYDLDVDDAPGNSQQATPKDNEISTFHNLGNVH

B1: GPC3-2 CAR (chimeric antigen receptor with the GPC3-2 scFv), expressed on cells (other)
chain: [letters of about 100 residues left out]GKRYFDYWGQGTMVTVSSGGGGSGGGGSGGGGSQSVLTQPPSASGTPGQRVTISCSGGSSDIGSNTVNWYQQLPGTAPKLLIYYNNQRPSGVPDRFSGSKSGTSASLAISGLQSEDEADYYCATWDDRMYSPVFGGGTKLTVL
notes: Chimeric antigen receptor; also called GPC3-2 CAR constructs; not shown: IgG4P hinge, CD28 transmembrane domain and intracellular domain
B1: the Kd in assay [1] was ~5 nM; in assay [2] it was 4.6 nM.

B2: GPC3-2 scFv-Fc fusion protein (Fc fusion)
chain: [letters of about 100 residues left out]GKRYFDYWGQGTMVTVSSGGGGSGGGGSGGGGSQSVLTQPPSASGTPGQRVTISCSGGSSDIGSNTVNWYQQLPGTAPKLLIYYNNQRPSGVPDRFSGSKSGTSASLAISGLQSEDEADYYCATWDDRMYSPVFGGGTKLTVL
notes: Purified scFv-Fc, covalently amine-coupled to the SPR sensor chip; also called anti-GPC3 scFv-Fc; not shown: Fc part
Turning to B2, the Kd in assay [3] is 11 nM; in assay [4], 11.1 nM.

B3: GPC3-1 CAR (chimeric antigen receptor with the GPC3-1 scFv), expressed on cells (other)
chain: [letters of about 100 residues left out]GKRYFDYWGQGTMVTVSSGGGGSGGGGSGGGGSSYELTQPPSASGTPGQRVTISCSGGSSNIGSNTVNWFRQLPGTAPKLLVYFNNQRPSGVPDRFSGSKSGTSASLAIGGLQSDDEADYYCVAWDDSLNAPVFGGGTKVTVL
notes: Chimeric antigen receptor; also called GPC3-1 CAR constructs; not shown: IgG4P hinge, CD28 transmembrane domain and intracellular domain
On to B3, for which the Kd in assay [1] was ~15 nM; in assay [2] it was 15.2 nM.

B4: GPC3-1 scFv-Fc fusion protein (Fc fusion)
chain: [letters of about 100 residues left out]GKRYFDYWGQGTMVTVSSGGGGSGGGGSGGGGSSYELTQPPSASGTPGQRVTISCSGGSSNIGSNTVNWFRQLPGTAPKLLVYFNNQRPSGVPDRFSGSKSGTSASLAIGGLQSDDEADYYCVAWDDSLNAPVFGGGTKVTVL
notes: Purified scFv-Fc, covalently amine-coupled to the SPR sensor chip; also called GPC-1; anti-GPC3 scFv-Fc; not shown: Fc part
As for B4, the Kd in assay [3] was determined as 73 nM; in assay [5], 73.1 nM.
